In all, about 220,000 compounds went through this assay and about 2,300 (1%) were called active. Inconclusive results, whose numbers are uncertain, are shown with a selection of clear calls. The call rests on the fitted dose curve; in most records, active means well fitted inhibition curve with a large enough effect; inconclusive means small, poorly fitted or top-dose-only effect, or effect the other way; inactive means no such curve, though single readings can be large or run the other way. Potencies of inconclusive entries are left out as doubtful fits.
What follows are compounds tested against Neuropeptide S receptor (Homo sapiens) (UniProt Q6W5P4) (assay: qHTS Assay for Antagonists of the Neuropeptide S Receptor: cAMP Signal Transduction). Conditions: CHO-NPSR cells, cAMP TR-FRET, antagonist mode; activity change, negative = inhibition: at 38.3 µM (top of the series) unless noted.
Sequence of UniProt Q6W5P4 (Q6W5P4 whole entry, looked up): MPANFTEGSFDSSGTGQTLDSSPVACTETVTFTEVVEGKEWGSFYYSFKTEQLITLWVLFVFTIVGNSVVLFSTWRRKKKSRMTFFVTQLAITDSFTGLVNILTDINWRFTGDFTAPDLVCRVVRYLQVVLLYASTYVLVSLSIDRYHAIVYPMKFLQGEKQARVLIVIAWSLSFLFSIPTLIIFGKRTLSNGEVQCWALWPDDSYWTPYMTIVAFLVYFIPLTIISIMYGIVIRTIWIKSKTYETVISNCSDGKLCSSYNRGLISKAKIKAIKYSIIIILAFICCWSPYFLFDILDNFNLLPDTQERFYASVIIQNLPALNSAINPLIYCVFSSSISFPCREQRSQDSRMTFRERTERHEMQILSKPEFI
Further: nearly all actives have a fitted effect of over 50% in size.
On the % scale 0 is the no-effect control and ±100 the full control effect; potency means the concentration at half of the fitted maximal effect; tags describe the fitted curve by direction and shape.

Row | Structure (SMILES) | Potency | activity change, negative = inhibition
1 | OCC1(CCOc2ccccc2)CCN(Cc2nc3ccc(F)cc3[nH]2)CC1 | inconclusive [activator, single point] | –
2 | CC(C)n1c(O)c(/C=C2\C=NN=C2c2ccccc2)sc1=S | inconclusive [activator, single point] | –
3 | CCCC1C(=O)N(c2ccccc2)C1c1ccccc1 (stereo not drawn) | inconclusive [inhibitor, single point] | –
4 | Cc1ccc(-c2nn(-c3ccccc3)cc2/C=C/C(=O)Nc2cccc(S(N)(=O)=O)c2)cc1 | inconclusive [inhibitor, single point] | –
5 | Fc1ccc2nc(Nc3nc4c(F)cc(F)cc4s3)sc2c1 | inconclusive [inhibitor, single point] | –
6 | Cc1cccc(S(=O)(=O)NCCC(=O)OCC(=O)Nc2ccc(C#N)cc2)c1 | – | inactive: 9.17%
7 | O=C(NC1CC1)C1=C[C@@H](c2csc3ccccc23)C[C@@H](OCc2ccc(CO)cc2)O1 | inconclusive [activator, single point] | –
8 | C/C(=N\NC(=O)CSCc1ccccc1Cl)c1cccc(NC(=O)c2ccccc2)c1 | inconclusive [inhibitor, single point] | –
9 | CC1CC(C)CN(C(=O)c2cccc(S(=O)(=O)Nc3cc(C(F)(F)F)ccc3Cl)c2)C1 (stereo not drawn) | – | inactive: -13.5%
10 | c1ccc(Sc2nc(N3CCCCC3)nc(N3CCCCC3)n2)nc1 | inconclusive [inhibitor, partial curve, poor fit] | –
11 | CC(=O)Nc1cccc(NC(=O)CSc2ncc(-c3ccc(Cl)cc3)n2Cc2ccco2)c1 | inconclusive [inhibitor, single point] | –
12 | Cc1ccccc1OCC(O)Cn1c(=N)n(Cc2ccccc2)c2ccccc21 (stereo not drawn) | active: 10 µM | –
13 | COCC(C)n1c(-c2ccc3c(c2)NC(=O)CO3)csc1=Nc1ccc(OC(F)F)cc1 (stereo not drawn) | active: 10 µM | –
14 | Cc1cc(NS(=O)(=O)c2ccc(NC(=O)C(C)N3C(=O)c4ccccc4C3=O)cc2)nc(C)n1 (stereo not drawn) | – | inactive: 0.28% [at 46.1 µM]
15 | Nc1nn(-c2ccccc2)c(N)c1N=Nc1ccccc1 | – | inactive: -12.6%
16 | CS(=O)(=O)N1CCN(c2ccccc2NC(=O)c2ccc(-c3ccc(Cl)cc3Cl)o2)CC1 | active: 3.16 µM | –
17 | Cc1ccc(C)c(NC(=S)NNC(=O)c2cc3c(s2)CCC(C)C3)c1 (stereo not drawn) | – | inactive: -23.3% [at 46.1 µM]
18 | CC(=O)c1ccc(NC(=O)c2cccs2)cc1 | – | inactive: 3.28% [at 46.1 µM]
19 | O=C(COC(=O)c1cc([N+](=O)[O-])ccc1NCCO)c1ccccc1 | – | inactive: 7.98%
20 | Cc1[nH]c2ccccc2c1N=Nc1ccc(F)cc1 | inconclusive [inhibitor, single point] | –
21 | O=C1C(NS(=O)(=O)c2cccs2)=C(N2CCN(c3cccc(C(F)(F)F)c3)CC2)C(=O)c2ccccc21 | active: 10 µM | –
22 | CCOC(=O)C1Cn2c(nc3c(c2=O)C(C)(CC)Cc2ccccc2-3)S1 (stereo not drawn) | inconclusive [inhibitor, single point] | –
23 | COc1ccc(NC(=O)CSc2nc3c(cc2C#N)CN(C)CC3)cc1 | inconclusive [inhibitor, partial curve, poor fit] | –

Row | Structure (SMILES) | Potency | activity change, negative = inhibition
24 | CC1C/C(=C/c2ccccn2)C(=O)/C(=C/c2ccccn2)C1 (stereo not drawn) | inconclusive [inhibitor, full curve, poor fit] | –
25 | COc1cccc(-c2n[nH]c(=S)n2Cc2ccco2)c1 | – | inactive: 13%
26 | O=C(NC1CCCC1)C(c1cccnc1)N(C(=O)c1csnn1)C1CC1 (stereo not drawn) | inconclusive [inhibitor, single point] | –
27 | CCc1c(C)sc(NC(=O)c2cc(C(C)C)on2)c1C#N | – | inactive: -37%
28 | Cc1cc(C)c(O)c(-c2cc(C(=O)NCc3ccccc3)[nH]n2)c1 | inconclusive [inhibitor, partial curve, poor fit] | –
29 | CC1Cc2ccccc2N1C(=O)C1CCCN1S(=O)(=O)c1ccc(Cl)cc1 (stereo not drawn) | inconclusive [inhibitor, single point] | –
30 | Cc1c(CCOC(=O)CC23CC4CC(CC(C4)C2)C3)sc[n+]1CC(=O)c1ccc(Br)cc1 | active: 10 µM | –
31 | C=CCn1cc(-c2ccccc2)cc(C#N)c1=O | – | inactive: -1.48% [at 46.1 µM]
32 | COc1ccc(-c2cccc(C3CC=CC4C3C(=O)N(Cc3ccccc3)C4c3ccc(OC)c(Cl)c3)c2)cc1 (stereo not drawn) | active: 10 µM | –
33 | COc1cccc2c1C(=O)c1c(O)c3c(c(O)c1C2=O)C[C@@](O)(C(=O)CO)C[C@@H]3O[C@H]1C[C@H](N)[C@H](O)[C@H](C)O1 | inconclusive [inhibitor, full curve, poor fit] | –
34 | O=C(Nc1cccc(Cn2cccn2)c1)c1cc2c(s1)CCCC2 | inconclusive [inhibitor, partial curve, poor fit] | –
35 | CCOC(=O)c1sc(-c2ccccc2)cc1NC(=O)CSc1nnnn1C | inconclusive [inhibitor, single point] | –
36 | CC(C)(C)NC(=O)COc1ccc(CNc2ccc3[nH]c(=O)[nH]c3c2)cc1 | inconclusive [inhibitor, single point] | –
37 | CCOC(=O)N/N=C/c1cn(Cc2ccc(F)cc2)c2ccccc12 | – | inactive: -3.51%
38 | Cc1cc(=O)oc(C)c1C(=O)Nc1ccccc1F | – | inactive: -12%
39 | O=C(Cc1ccc(Br)cc1)Nc1ccccc1Sc1ccccc1 | inconclusive [inhibitor, single point] | –
40 | COc1ccc(C2C(C(=O)c3ccccc3)N3c4ccccc4C=CC3C2[N+](=O)[O-])cc1 (stereo not drawn) | inconclusive [inhibitor, single point] | –
41 | COCCn1nnnc1C(C(C)C)N(Cc1ccccc1)Cc1cc2cc(OC)ccc2[nH]c1=O (stereo not drawn) | inconclusive [inhibitor, partial curve, poor fit] | –
42 | O=C(O)C1C2C=CC(C2)C1C(=O)N1CCc2ccccc21 (stereo not drawn) | inconclusive [activator, partial curve, poor fit] | –
43 | Cc1[nH]c2ccccc2c1C(O)CN1CCN(c2cccc(C(F)(F)F)c2)CC1 (stereo not drawn) | inconclusive [inhibitor, single point] | –
44 | Cc1[nH]c2ccccc2c1C(C[N+](=O)[O-])c1cccs1 (stereo not drawn) | inconclusive [inhibitor, single point] | –
45 | CCOc1cc(C(C#N)N2CCOCC2)ccc1OC (stereo not drawn) | – | inactive: 8.68% [at 46.1 µM]
46 | COc1cccc2c1[C@@H]1CN(CCCCn3c(=O)[nH]c4c(sc5ncc(-c6ccccc6)nc54)c3=O)C[C@@H]1CO2 | inconclusive [inhibitor, single point] | –

Row | Structure (SMILES) | Potency | activity change, negative = inhibition
47 | CCOC(=O)/C(=N/Nc1ccc(OC)cc1)N1CCCc2ccccc21 | inconclusive [activator, partial curve] | –
48 | C/C(=N\NC(=O)c1ccc(O)cc1)c1ccc2c(c1)Nc1ccccc1S2 | inconclusive [activator, partial curve] | –
49 | c1ccc(-c2oc3ncnc(NCCN4CCOCC4)c3c2-c2ccccc2)cc1 | inconclusive [inhibitor, single point] | –
50 | Cc1ccc(S(=O)(=O)NC(CC(C)C)C(=O)Oc2ccc3c4c(c(=O)oc3c2)CCC4)cc1 (stereo not drawn) | inconclusive [inhibitor, single point] | –
51 | CC[C@@H](C(=O)n1nc(C)cc1C)[C@H](NS(=O)(=O)c1ccc(C)cc1)c1ccccc1 | inconclusive [inhibitor, single point] | –
52 | COc1ccc(C(=O)CC(Nc2ccc([N+](=O)[O-])cc2)c2ccc(OC)cc2)cc1 (stereo not drawn) | – | inactive: -17.3% [at 46.1 µM]
53 | O=C1CC(c2ccco2)CC2=C1C(c1ccccc1)n1nc(C(F)(F)F)nc1N2 (stereo not drawn) | inconclusive [inhibitor, full curve, poor fit] | –
54 | CCn1c(SCC(=O)N2CCCc3ccccc32)nc2ccccc2c1=O | inconclusive [inhibitor, partial curve] | –
55 | CCCC(C(=O)O)N1C(=O)/C(=C2\C(=O)N(C)c3ccccc32)SC1=S (stereo not drawn) | – | inactive: -18.9% [at 46.1 µM]
56 | CNC(=S)N/N=C(\C)c1ccc(N2CCOCC2)cc1 | inconclusive [inhibitor, single point] | –
57 | COc1ccc(C(=O)C2CCCN(C3Cc4ccccc4C3)C2)c(OC)c1 (stereo not drawn) | – | inactive: 0.398%
58 | CC1CCCCC1n1c(=S)[nH]c2ccccc2c1=O (stereo not drawn) | inconclusive [inhibitor, single point] | –
59 | Cc1oc(=O)c(NC(=O)c2ccccc2)cc1C(=O)c1ccccc1 | inconclusive [inhibitor, partial curve] | –
60 | O=C(NCc1ccco1)Nc1cccc([N+](=O)[O-])c1 | – | inactive: 5.76%
61 | Cc1ccc(OCCN2CCN(CC(O)Cn3c4ccccc4c4ccccc43)CC2)cc1 (stereo not drawn) | – | inactive: -42%
62 | O=C(NC1CC1)C1=C[C@H](C2CCCCC2)C[C@H](OCc2ccc(CO)cc2)O1 | inconclusive [activator, partial curve] | –
63 | COc1cc2nc(=S)n3[nH]c(CCn4nc(C)cc4C)nc3c2cc1OC | – | inactive: -6.15% [at 46.1 µM]
64 | CCCCCn1c(=O)c(C(=O)c2ccccc2)nc2ccccc21 | inconclusive [inhibitor, single point] | –
65 | COc1ccc(C2c3sc(=O)[nH]c3SC3C(=O)N(c4ccccc4)C(=O)C32)cc1 (stereo not drawn) | – | inactive: -27% [at 46.1 µM]
66 | CCCCOC1(c2ccccc2)OC(=O)c2ccccc21 (stereo not drawn) | inconclusive [inhibitor, partial curve] | –
67 | Cc1nn(C(C)C)c(C)c1CN1CCCC(C(=O)c2cccc(OC(C)C)c2)C1 (stereo not drawn) | – | inactive: 22.7%
68 | O=C(C1=C[C@H](c2ccccc2)C[C@H](OCc2ccc(CO)cc2)O1)N1CCN(Cc2ccccc2)CC1 | inconclusive [activator, partial curve] | –
